In all, about 81,000 sequences were measured (“one-hybrid fitness for binding NBS DNA”: median about -0.1, highest 2% from about 0.36 on). Some of the results follow.
B1: Caulobacter ParB omega fusion; a variant is named by its letters at X, in order, B8GW30 (parent)
chain: MESVVVGEPGMSEGRRGLGRGLSALLGEVDAAPAQAPGEQLGGSREAPIEILQRNPDQPRRTFREEDLEDLSNSIREKGVLQPILVRPSPDTAGEYQIVAGERAWRAAQRAGLKTVPIMVRELDDLAVLEIGIIENVQRADLNVLEEALSYKVLMEKFERTQENIAQTIGKSXSHVANXMRLLXLPDEVQSYLVSGELTAXHARAIAAAADPVALAKQIIEGGLSVRETEALARKAPNLSAGKSKGGRPPRVKDTDTQALESDLSSVLGLDVSIDHRGSTGTLTITYATLEQLDDLCNRLTRGI

Variants of: B1
Assay: one-hybrid fitness for binding NBS DNA (the Noc-binding site; scaled: cognate 1, non-cognate 0); higher = stronger binding
Conditions: with NBS DNA site
Outline: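 In E. coli USO, a HIS3 reporter with its site placed 19 bp from the promoter was used to select Caulobacter ParB variants randomised at four specificity codons. Growth lasted 48 hours at 37°C on histidine-free M9 containing 0.1 mM IPTG and 5 mM 3-AT. Fitness was taken as the log change in variant-to-wild-type read ratio from Illumina sequencing of pre- and post-selection plasmids, rescaled between the non-cognate and cognate sites.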

one-hybrid fitness for binding NBS DNA, ≤ 0.2:
SQRV
GENQ
AVLK
QIIS
TNST
CYAR
ESTQ
FKLR
PWVS
SQQT
DQSG
LMHV
QAEP
VKDG
DERG
RKGK
QFTC
KQTD
QIAF
QDSS
NWRT
THTN
NGLW
VMGG
GGFE
CSVC
LPIC
RDKI
PQNG
IRSE
GIKM
NRYT
ITRD
PAFA
IIYN
DTQV
HRGP
PCDK
MPNF
DQSA
LNPR
NSQE
GITT
RQQE
SMDN
QKPS
YHCG
NKDT
RKFI
DYIR
HIWE
HPIA
NEGN
KVSK
TLAP
SIPW
FMSG
GFLG
PQTM
VSCA
NDNR
PDGI
SVIV
TSYC
FDPG
TPCG
NWER
RAHF
TNWA
QIRF
RYFS
NLTT
SYLH
YDFW
CCKR
TMYI
GHLS
GLAW
AHHV
RVRI
HAAW
RTYP
PAKM
PTTN
YLQW
YSQV
VSCK
RWMR
PDYS
HQGS
EYHR
TITV
FSHS
KCIT
LTWF
YWTS
PPII
PKGI
HSIG
FTPF
KNSM
YRPK
DNNS
LHTG
ILKT
GQLN
EATT
ETRL
LYPS
WRGS
RWES
MMIG
QGEI
ALEL
WALT
DRDE
SNLK
MIDE
QLGN
VWKS
ALSC
SMKM
HPQG
KRPE
VGQF
NAAV
RIHM
IVVT
LHDC
VLQC
PRPV
NLNT
SSLF
KLAY
PHME
FYHF
TSQR
KHSR
QYAF
SVWT
YCTG
RIWQ
ARIK
SPPN
YHDT

one-hybrid fitness for binding NBS DNA, 0.291:
RRTM

one-hybrid fitness for binding NBS DNA, 0.511:
QRVQ

one-hybrid fitness for binding NBS DNA, 0.234:
GAKR

one-hybrid fitness for binding NBS DNA, 0.561:
KRSR

one-hybrid fitness for binding NBS DNA, 0.3:
QTGM

one-hybrid fitness for binding NBS DNA, 0.282:
RTDR

one-hybrid fitness for binding NBS DNA, 0.232:
QHKL

one-hybrid fitness for binding NBS DNA, 0.671:
RRRA
